Assay results reported in the supplement of paper PMC11417369.
This is one part of the list.

system: PfSIP2 AP2 domain 1 (GST-tagged); assay: gcPBM binding intensity (ln(normalized median fluorescence intensity)); higher = stronger DNA binding
In short: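 An Agilent 4 × 180k array carrying primer-extended double-stranded 36-bp intergenic genomic probes and negative controls received GST-tagged P. falciparum DNA-binding domains expressed in E. coli, about 25 μg on average, for 1 h. The binding buffer contained 1× PBS, 1% milk, 0.2 mg/ml BSA, 0.5% salmon testes DNA and 0.03% Triton X-100. Binding intensity is the top Masliner-normalised natural-log median intensity across replicate spots of either probe orientation, read after Alexa488 anti-GST antibody staining and a 488 nm scan.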

Sequence	gcPBM binding intensity (ln)
ATTCTATAGAAACACACACACATGCATGCACCTATA [CACACA_site107]	11.7
TTGAGCCTACAAAAGGGTACACATTCAATTTATTTT [XGTACX_site6570]	6.92
AAAAAAAAAAGAAATTGTACTTTTTGTTTAATAATT [XGTACX_site4681]	6.65
ATATTTTGTTATGAAACACACACATATATATATATA [CACACA_site9216]	9.43
ATTATATACAAATAAAGTACATAAACAAATTCAGAA [XGTACX_site1187]	7.13
TATTTCAAACTGTTCTCACACACGAAATTAGAAATG [CACACA_site611]	6.95
ATAAAATGATGTATCTGTGTATGTTTATTTTGTTTT [XGTACX_negctrl_site367]	6.87
TTTTGAATATGGATCTTATATATATTAAATAAATAA [CACACA_negctrl_site344]	6.72
ATTCCAGAAATATATTAACAAGGAAAATATAAAAAT [CACACA_negctrl_site343]	6.78
ATATATATTATATATGCATGCCAAATCTTTATAAAC [TGCATGCA_site1042]	7.15
ACATATATATATATATATATATATATATATAGATAG [CACACA_negctrl_site783]	8.39
ACAAAAAAATATTTATGTACTTATTATATTTATAAT [XGTACX_site2059]	7.01
CTTTTTACTTAATACACACACACACTAAAAAAAAAA [CACACA_site6574]	7.44
AAAACTAAATGTTATTCGCACACGGAATTTATTTAA [CACACA_site9221]	6.81
ATAAAGAAATTACACACATGCAATGAAAAAAAAAAA [TGCATGCA_site406]	6.96
TACTAAGAAGTATTTACACACCAACAAGGCGAAAAA [CACACA_site2944]	6.8
ATATGTATAAAAATCCGTACATAAGTGTGCGTATAT [XGTACX_site4376]	7.16
ATAAATAATATGTAAACACACAAAAAATAAAAATGA [CACACA_site1178]	7.17
ATGTTTGAGCCTAAGGTGCATATAAAAATATATGTG [GTGCAC_site9690]	10.7

Sequence	gcPBM binding intensity (ln)
GAGTTTATATTTTAAGCATGCATATGTTATTATTAT [TGCATGCA_site1049]	7.12
TATATCAAAAACGAGACATGCATGCCGTTCATTTTG [TGCATGCA_site211]	6.6
TTATTAACGGAACTCTGTACTTAAAAAATTTTAGAA [XGTACX_site8787]	7.07
AAAAAAACAGAAAACACACAAATTATCTTATAATTA [CACACA_site6282]	6.53
TATATAAGAATATATACACACATATCTGTATTTATA [CACACA_site5231]	6.9
ATTGTTTCATTAAAATGTACATAAATTGTGTATAAT [XGTACX_site5341]	7.33
TATATATATATTTAATGTACATGTTTATTTTATCAT [XGTACX_site499]	8.54
AATAAAATAAAAAAAAATAAAAAAAAAATAAAAAAT [XGTACX_negctrl_site245]	6.62
TTTATAAAGGGAAAGGTGCAAAAGGTGAAAGTTTTA	10.8
TATTTTTCTTTTTAAGTGCATGGTTGTATAAAATTT [GTGCAC_site9480]	8.39
TCTTTTTTGAAGCATTTTGTTTTTTAATAAGTAAAA [TGCATGCA_negctrl_site247]	6.89
ATATAATGAAGTGAATGTACATATAAAATGTAAAAA [XGTACX_site8052]	6.86
TTTTTATAAATAATAAGGCGTATGAAAATAAAATAA [TGCATGCA_negctrl_site421]	7.13
TCAAAATATCCAAAAGAATAAAGAAAAAAAAAAAGA [CACACA_negctrl_site1377]	6.83
ATATAACATTGTTTTGCATGTAAATATTCAATTTTT [TGCATGCA_site758]	6.88
TCAAATTTAATCATAACACACATTCACATATGAATT [CACACA_site3199]	6.85
TAAAGCAACTGAAACACACAAATTTTTTTTTTTTTT [CACACA_site7499]	6.8
AAACTGAAAAAAATATGTACATATTTATATCTTATA [XGTACX_site3011]	7.02
ATTGTATAAAAATGTACATGCAATAAATTTAGTTCT [TGCATGCA_site675]	7.01

Sequence	gcPBM binding intensity (ln)
AAAAAAAAAAAACACACACACAAATACAAATACATA [CACACA_site415]	7.07
GAAACGTTTTTTCAGTGTACATTTTACCGATTTGTA [XGTACX_site8249]	7.03
TAGTATAATATATATTGTACGTTTTAATTGTTTATA [XGTACX_site2731]	6.85
TAATAAATCAAATGCACACACACAAAAAAAAAAAAA [CACACA_site161]	7.31
TTTTTATTTTTTTATGCATGTGATGAAACGTGCCTA [TGCATGCA_site141]	6.91
ATAATTAACAAATACACACACACACCCAGACAAAAA [CACACA_site4445]	7.27
TTTTTAATCATAATATGTACATATAAAAATGGTTTG [XGTACX_site3996]	7.01
AATATGTCTTAAAAAAGTACATAAATTTTAACTTCA [XGTACX_site6670]	7.1
AAAATATTAAATATGTGTACATATAATAGTTCAATG [XGTACX_site5957]	7.12
AAACAAATAAAAATATGTACACATTTTTTCATTATG [XGTACX_site5449]	7.18
TTAAAAGAAAATAGGTGTACACATAATATATACATA [XGTACX_site7697]	7.11
TGTGTATATATAAATACACACCAAATGTTAATATAT [CACACA_site8501]	6.93
AACAATTAGAATAACGCATGCATTTATAATATAGAA [TGCATGCA_site595]	6.74
ACATAGATCATAGGTTGTACGAAGGTATCCTTTATT [XGTACX_site694]	6.81
TCATATATATATATATGTACATATTTATGTATGTAT [XGTACX_site6291]	7.29
ACTTTTTGAATGTTTGCACACAAATCTCATAATTTT [CACACA_site358]	7.43
AAAAGGAGCAAATACAAAAAAATGAACAAAAAAAAA [CACACA_negctrl_site716]	6.88
TTTTTCTTTGAATAAATACACACGAGAAATGAAAGT [CACACA_site1688]	7.99
